This experiment addresses T1, UL141 ectodomain (UL141ecto), His-tagged (human cytomegalovirus (HCMV), UniProt Q6RJQ3 37-278).
T1 construct: also called gpUL141; source: SF9 cells transduced with baculovirus, supernatant
T1 sequence: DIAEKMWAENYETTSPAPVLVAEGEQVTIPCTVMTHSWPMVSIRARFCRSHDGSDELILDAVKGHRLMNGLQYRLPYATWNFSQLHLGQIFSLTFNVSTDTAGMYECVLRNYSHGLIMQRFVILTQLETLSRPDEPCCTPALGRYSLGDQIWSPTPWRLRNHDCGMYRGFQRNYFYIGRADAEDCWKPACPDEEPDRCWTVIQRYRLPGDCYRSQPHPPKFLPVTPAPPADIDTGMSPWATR
Briefly: SPR; Biacore 3000; TRAIL DR Fc fusion proteins immobilised on an anti-human Fc capture chip, UL141ecto as analyte in Biacore running buffer (0.78-50 uM on TRAIL-R1, 0.016-1 uM on TRAIL-R2). The following applies: both partners purified. Background: SPR reads the build-up and loss of mass on a sensor chip optically.

For orientation: Kd means the free concentration of one partner at which half of the binding sites on the other are occupied at equilibrium, for simple one-to-one binding. For orientation: koff means a measure of how fast the partners let go of each other. Higher therefore signals a short-lived complex. Usually kon stands for the rate constant with which the complex forms. Lower therefore signals slow association.

B1: TRAIL-R1:Fc (Fc fusion)
chain: not shown
notes: also called DR4; TRAIL-R1 Fc fusion protein; source: bought: R&D Systems
B1 had a Kd of 2300 nM, a koff of 0.014 s⁻¹ and a kon of 6000 M⁻¹ s⁻¹.

B2: TRAIL-R2:Fc (Fc fusion)
chain: not shown
notes: also called DR5; TRAIL-R2 Fc fusion protein
With B2, the Kd was 6 nM, the off-rate (koff) was 7.2e-05 s⁻¹ and the association rate constant (kon) amounted to 12000 M⁻¹ s⁻¹.

The values above are taken from PMC3601332, “Human Cytomegalovirus Glycoprotein UL141 Targets the TRAIL Death Receptors to Thwart Host Innate Antiviral Defenses” (Cell Host & Microbe, 2013).
